Assay results taken from patent US11999716B2, “WDR5 inhibitors and modulators” (priority 2018, dated 2024).

molecular target: WDR5 (Homo sapiens, UniProt P61964); test: biochemical; format: binding; settings: WDR5-His tag (Δ23, residues 24-334) 2 nM; 10mer-Thr-FAM probe 150 nM; Tb-anti-HIS 1 nM; 60 min, room temperature; read-out: Ki for Inhibition of WDR5 by TR-FRET assay

Compound	Ki
Cc1nccn1Cc1cc2c(c(-c3cn(C)nc3C(F)(F)F)c1)CCN(CC1CCCCN1C)C2=O (centres unmarked) [Example 171, 7-((2-Methyl-1H-imidazol-1-yl)methyl)-5-(1-methyl-3-(trifluoromethyl)-1H-pyrazol-4-yl)-2-((1-methylpiperidin-2-yl)methyl)-3,4-dihydroisoquinolin-1(2H)-one]	1200 pM
COc1ccnc([C@H](C)N2CCc3c(cc(Cn4ccnc4C)cc3-c3cncnc3C(F)(F)F)C2=O)c1 [Example 249, (S)-2-(1-(4-Methoxypyridin-2-yl)ethyl)-7-((2-methyl-1H-imidazol-1-yl)methyl)-5-(4-(trifluoromethyl)pyrimidin-5-yl)-3,4-dihydroisoquinolin-1(2H)-one]	220 pM
Cc1nccn1Cc1cc2c(cc1F)CCN(Cc1ccc(Cl)c(Cl)c1)C2=O [Example 4, 2-(3,4-Dichlorobenzyl)-6-fluoro-7-((2-methyl-1H-imidazol-1-yl)methyl)-3,4-dihydroisoquinolin-1(2H)-one]	49000 pM
COc1cc(CN2CCc3c(cc(Cn4ccn(C)c4=N)cc3-c3ncc(F)cc3C)C2=O)cc(OC)c1 [Example 59, 2-(3,5-Dimethoxybenzyl)-5-(5-fluoro-3-methylpyridin-2-yl)-7-((2-imino-3-methyl-2,3-dihydro-1H-imidazol-1-yl)methyl)-3,4-dihydroisoquinolin-1(2H)-one]	140 pM
COc1ccnc([C@H](C2CC2)N2CCc3c(cc(Cn4ccnc4)cc3-c3cn(C)nc3C(F)(F)F)C2=O)c1 [Example 252, (S)-7-((1H-Imidazol-1-yl)methyl)-2-(cyclopropyl(4-methoxypyridin-2-yl)methyl)-5-(1-methyl-3-(trifluoromethyl)-1H-pyrazol-4-yl)-3,4-dihydroisoquinolin-1(2H)-one]	< 50 pM
Cc1cc([C@H](C2CC2)N2CCc3c(cc(Cn4ccn(C)c4=N)cc3-c3cccnc3C(F)(F)F)C2=O)ccc1F [Example 34, (S)-2-(Cyclopropyl(4-fluoro-3-methylphenyl)methyl)-7-((2-imino-3-methyl-2,3-dihydro-1H-imidazol-1-yl)methyl)-5-(2-(trifluoromethyl)pyridin-3-yl)-3,4-dihydroisoquinolin-1(2H)-one]	< 50 pM
Cc1nccn1Cc1cc2c(c(-c3cn(C)nc3C(F)(F)F)c1)CCN(CC1CCC(=O)N(C)C1)C2=O (centres unmarked) [Example 172, 7-((2-Methyl-1H-imidazol-1-yl)methyl)-5-(1-methyl-3-(trifluoromethyl)-1H-pyrazol-4-yl)-2-((1-methyl-6-oxopiperidin-3-yl)methyl)-3,4-dihydroisoquinolin-1(2H)-one]	< 50 pM
COc1cc(CN2CCc3c(cc(Cn4ccn(C)c4=N)cc3-c3c(C)noc3C)C2=O)cc(OC)c1 [Example 76, 2-(3,5-Dimethoxybenzyl)-5-(3,5-dimethylisoxazol-4-yl)-7-((2-imino-3-methyl-2,3-dihydro-1H-imidazol-1-yl)methyl)-3,4-dihydroisoquinolin-1(2H)-one]	160 pM
CCn1cc(-c2cc(Cn3ccoc3=N)cc3c2CCN(Cc2cc(C)nn2C)C3=O)c(C(F)(F)F)n1 [Example 94, 2-((1,3-Dimethyl-1H-pyrazol-5-yl)methyl)-5-(1-ethyl-3-(trifluoromethyl)-1H-pyrazol-4-yl)-7-((2-iminooxazol-3(2H)-yl)methyl)-3,4-dihydroisoquinolin-1(2H)-one]	< 50 pM
CCn1cc(-c2cc(CN3Cc4ccccc4C3=N)cc3c2CCN(Cc2cc(OC)ccn2)C3=O)c(C(F)(F)F)n1 [Example 115, 5-(1-Ethyl-3-(trifluoromethyl)-1H-pyrazol-4-yl)-7-((1-iminoisoindolin-2-yl)methyl)-2-((4-methoxypyridin-2-yl)methyl)-3,4-dihydroisoquinolin-1(2H)-one]	13000 pM
COc1cc(CN2CCc3cc(F)c(Cn4ccnc4C)cc3C2=O)cc(OC)c1 [Example 3, 2-(3,5-Dimethoxybenzyl)-6-fluoro-7-((2-methyl-1H-imidazol-1-yl)methyl)-3,4-dihydroisoquinolin-1(2H)-one]	28000 pM
CCn1cc(-c2cc(CN3CCOC3=N)cc3c2CCN(Cc2cn(C)nc2C)C3=O)c(C(F)(F)F)n1 [Example 98, 2-((1,3-Dimethyl-1H-pyrazol-4-yl)methyl)-5-(1-ethyl-3-(trifluoromethyl)-1H-pyrazol-4-yl)-7-((2-iminooxazolidin-3-yl)methyl)-3,4-dihydroisoquinolin-1(2H)-one]	< 50 pM
Cc1nccn1Cc1cc2c(c(-c3cn(C)nc3C(F)(F)F)c1)CCN(Cc1cc(Cl)cc3ccccc13)C2=O [Example 225, 2-((3-Chloronaphthalen-1-yl)methyl)-7-((2-methyl-1H-imidazol-1-yl)methyl)-5-(1-methyl-3-(trifluoromethyl)-1H-pyrazol-4-yl)-3,4-dihydroisoquinolin-1(2H)-one]	< 50 pM
CCc1ccnc(CN2CCc3c(cc(Cn4cnn(C)c4=N)cc3-c3cn(CC)nc3C(F)(F)F)C2=O)c1 [Example 129, 5-(1-Ethyl-3-(trifluoromethyl)-1H-pyrazol-4-yl)-2-((4-ethylpyridin-2-yl)methyl)-7-((5-imino-1-methyl-1,5-dihydro-4H-1,2,4-triazol-4-yl)methyl)-3,4-dihydroisoquinolin-1(2H)-one]	< 50 pM

Results, then the compound that gave them:

Ki	Compound
< 50 pM	COc1ccnc([C@H](C2CC2)N2CCc3c(cc(Cn4ccnc4)cc3-c3cn(C)nc3C)C2=O)c1 [Example 211, (S)-7-((1H-Imidazol-1-yl)methyl)-2-(cyclopropyl(4-methoxypyridin-2-yl)methyl)-5-(1,3-dimethyl-1H-pyrazol-4-yl)-3,4-dihydroisoquinolin-1(2H)-one]
< 50 pM	COc1ccnc(CN2CCc3c(cc(CN4CCN(C5CC5)C4=N)cc3-c3cn(C)nc3C(F)(F)F)C2=O)c1 [Example 44, 7-((3-Cyclopropyl-2-iminoimidazolidin-1-yl)methyl)-2-((4-methoxypyridin-2-yl)methyl)-5-(1-methyl-3-(trifluoromethyl)-1H-pyrazol-4-yl)-3,4-dihydroisoquinolin-1(2H)-one]
< 50 pM	COc1cc(CN2CCc3c(cc(Cn4ccn(C)c4=N)cc3-c3cn(C)nc3C)C2=O)cc(OC)c1 [Example 70, 2-(3,5-Dimethoxybenzyl)-5-(1,3-dimethyl-1H-pyrazol-4-yl)-7-((2-imino-3-methyl-2,3-dihydro-1H-imidazol-1-yl)methyl)-3,4-dihydroisoquinolin-1(2H)-one]
< 50 pM	COc1ccnc([C@H](C)N2CCc3c(cc(Cn4ccnc4C)cc3-c3c[nH]nc3C(F)(F)F)C2=O)c1 [Example 237, (S)-2-(1-(4-methoxypyridin-2-yl)ethyl)-7-((2-methyl-1H-imidazol-1-yl)methyl)-5-(3-(trifluoromethyl)-1H-pyrazol-4-yl)-3,4-dihydroisoquinolin-1(2H)-one]
< 50 pM	COc1ccnc(CN2CCc3c(cc(Cn4ccn(C)c4=N)cc3-c3cn(C)nc3C(F)(F)F)C2=O)c1 [Example 41, 7-((2-Imino-3-methyl-2,3-dihydro-1H-imidazol-1-yl)methyl)-2-((4-methoxypyridin-2-yl)methyl)-5-(1-methyl-3-(trifluoromethyl)-1H-pyrazol-4-yl)-3,4-dihydroisoquinolin-1(2H)-one]
34 pM	CCc1ccnc(CN2CCc3c(cc(Cn4ccnc4C)cc3-c3cn(CC)nc3C(F)(F)F)C2=O)c1 [Example 21, 5-(1-Ethyl-3-(trifluoromethyl)-1H-pyrazol-4-yl)-2-((4-ethylpyridin-2-yl)methyl)-7-((2-methyl-1H-imidazol-1-yl)methyl)-3,4-dihydroisoquinolin-1(2H)-one]
